Data published in PMC10502657.
Results are given in words; binding and its absence hold for the method and conditions named. In cells and extracts the contact can be indirect. Some results given as binding are weak or reduced against the parent protein; the word gives no strength. For part of these data: Tags and fused reporters may be left off the sequences shown. Blank lines part the entries; values can stand above or below the binder they belong to.

Sequences of proteins named here, by UniProt entry; tags and fusion partners are left off.
UniProt Q00987: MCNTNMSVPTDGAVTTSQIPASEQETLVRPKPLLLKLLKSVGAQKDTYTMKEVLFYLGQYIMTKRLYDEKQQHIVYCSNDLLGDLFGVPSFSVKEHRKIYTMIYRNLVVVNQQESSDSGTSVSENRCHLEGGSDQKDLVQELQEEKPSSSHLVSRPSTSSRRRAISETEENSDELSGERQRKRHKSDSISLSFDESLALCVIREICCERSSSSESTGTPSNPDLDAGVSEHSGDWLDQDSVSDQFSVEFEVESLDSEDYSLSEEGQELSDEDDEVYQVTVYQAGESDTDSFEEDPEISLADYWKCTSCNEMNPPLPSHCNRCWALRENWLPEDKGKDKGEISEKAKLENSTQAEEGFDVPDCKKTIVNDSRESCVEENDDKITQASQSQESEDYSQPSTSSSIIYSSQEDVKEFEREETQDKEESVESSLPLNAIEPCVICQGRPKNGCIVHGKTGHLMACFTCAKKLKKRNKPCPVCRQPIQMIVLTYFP

How the values were obtained:
[1] = target: USP7, exogenously expressed (tag not shown) (UniProt Q93009); assay: co-IP; immunoprecipitation assays with deletion mutants of MLF2 and of USP7 (Figure S3C–E); cells and tags not shown
Flag–Mdm2 = Flag–Mdm2 (UniProt Q00987); assay: co-IP; HEK293T cells transfected with tagged proteins, lysed 24 h later (MG132 20 µM for 6 h before lysis); IP buffer 50 mM Tris-HCl pH 7.4, 150 mM NaCl, 1.5 mM MgCl2, 1 mM EDTA, 0.5% NP-40, 0.5% Triton X-100, 10% glycerol; western blot
Flag–USP7 = Flag–USP7 (UniProt Q93009); assay: as above
[2] = target: USP7, exogenously expressed (tag not shown) (UniProt Q93009); assay: proximity ligation; Duolink In Situ Red Starter Kit on fixed, permeabilised cells with exogenously expressed proteins; isotype-matched rabbit and mouse IgG as negative control
[3] = target: p53, exogenously expressed (tag not shown) (UniProt P04637); assay: as above
Flag–p53 = Flag–p53 (UniProt P04637); assay: co-IP; HEK293T cells transfected with tagged proteins, lysed 24 h later (MG132 20 µM for 6 h before lysis); IP buffer 50 mM Tris-HCl pH 7.4, 150 mM NaCl, 1.5 mM MgCl2, 1 mM EDTA, 0.5% NP-40, 0.5% Triton X-100, 10% glycerol; western blot

B2: HA–MLF2 (protein, UniProt Q15773 1-248)
chain: MFRFMRDVEPEDPMFLMDPFAIHRQHMSRMLSGGFGYSPFLSITDGNMPGTRPASRRMQQAGAVSPFGMLGMSGGFMDMFGMMNDMIGNMEHMTAGGNCQTFSSSTVISYSNTGDGAPKVYQETSEMRSAPGGIRETRRTVRDSDSGLEQMSIGHHIRDRAHILQRSRNHRTGDQEERQDYINLDESEAAAFDDEWRRETSRFRQQRPLEFRRLESSGAGGRRAEGPPRLAIQGPEDSPSRQSRRYDW
binding (Flag–Mdm2): no binding
binding (Flag–USP7): binds

B4: GFP–MLF2 (protein, UniProt Q15773 1-248)
chain: B2 chain
binding (Flag–p53): binds

Further lines, results first:

binding [1]: binds
B1: MLF2 (aa 1–150) (domain or fragment, UniProt Q15773 1-150)
chain: MFRFMRDVEPEDPMFLMDPFAIHRQHMSRMLSGGFGYSPFLSITDGNMPGTRPASRRMQQAGAVSPFGMLGMSGGFMDMFGMMNDMIGNMEHMTAGGNCQTFSSSTVISYSNTGDGAPKVYQETSEMRSAPGGIRETRRTVRDSDSGLEQ

binding [2]: binds
binding [3]: binds
B3: MLF2, exogenously expressed (tag not shown) (protein, UniProt Q15773 1-248)
chain: B2 chain
